# In all, about 410,000 compounds went through this assay and about 6,400 (1.6%) were called active. Inconclusive results, whose numbers are uncertain, are shown with a selection of clear calls. Calls come from the whole dose curve; as a rule, active = well fitted inhibition curve with a large enough effect; inconclusive = small, poorly fitted or top-dose-only effect; inactive = no such curve, though single readings can be large or run the other way. Potencies of inconclusive entries are left out as doubtful fits.
# Target: Glucagon-like peptide 1 receptor (Homo sapiens) (UniProt P43220)
# UniProt P43220, sequence (P43220 whole entry, looked up): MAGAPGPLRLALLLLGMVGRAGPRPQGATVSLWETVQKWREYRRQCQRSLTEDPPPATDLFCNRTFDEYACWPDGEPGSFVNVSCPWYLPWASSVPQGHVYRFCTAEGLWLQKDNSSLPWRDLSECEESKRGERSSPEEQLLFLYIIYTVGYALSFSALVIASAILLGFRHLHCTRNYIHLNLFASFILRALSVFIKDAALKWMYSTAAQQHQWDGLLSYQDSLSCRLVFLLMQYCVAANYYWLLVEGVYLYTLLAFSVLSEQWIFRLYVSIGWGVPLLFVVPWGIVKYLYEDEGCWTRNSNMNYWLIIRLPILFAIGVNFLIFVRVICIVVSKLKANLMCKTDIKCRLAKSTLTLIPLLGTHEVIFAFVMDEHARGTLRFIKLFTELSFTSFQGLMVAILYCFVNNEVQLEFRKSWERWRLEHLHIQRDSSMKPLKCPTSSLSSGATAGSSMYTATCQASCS
# Assay: qHTS of GLP-1 Receptor Inverse Agonists (Inhibition Mode); note: nearly all actives have a fitted effect of over 55% in size
# Settings: HEK293 GLP-1R CRE-luciferase, luminescence, 24 h, GLP-1R form is constitutively active; activity change, negative = inhibition: at 38.3 µM (top of the series) unless noted
# Method in brief: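 Luminescence readout: a drop in cAMP-driven luciferase signal flags inverse agonism at a constitutively active GLP-1R stably expressed in HEK293. Compound exposure lasted 24 hr at 37 deg C, 5% CO2.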
# % is set by controls: 0 for no effect and ±100 for the full control effect; potency is the fitted concentration of half-maximal effect; tags give direction and shape of the fitted curve.
Compound,Potency,"activity change, negative = inhibition"
CCCNS(=O)(=O)c1ccc(CCC(=O)N2CCC(C)CC2)cc1,"inconclusive [inhibitor, single point]",–
COc1ccc(OC)c(CNc2ccc([N+](=O)[O-])cc2C)c1,"inconclusive [inhibitor, partial curve, poor fit]",–
CCC1(C(=O)OC)CCc2c(cc(OC)c3ccccc23)C1=O (stereo not given),"inconclusive [inhibitor, single point]",–
CC(=O)Nc1ccc(S(=O)(=O)N2CCSC2c2ccccc2Cl)cc1 (stereo not given),"inconclusive [inhibitor, single point]",–
CCOc1ccc(-n2c(-c3ccccc3)nnc2-c2ccccc2)cc1,"inconclusive [inhibitor, full curve]",–
Cc1ccc(NC(=O)NNC(=O)COc2ccc([N+](=O)[O-])cc2)cc1C,"inconclusive [inhibitor, single point]",–
COc1ccc(C2CC(c3ccccc3)=NN2c2ccc(Cl)c(C(=O)O)c2)cc1 (stereo not given),"inconclusive [inhibitor, single point]",–
CCC1CCC2(CC1)NC(=O)N(CC(=O)NCc1ccccc1Cl)C2=O (stereo not given),"inconclusive [inhibitor, partial curve, poor fit]",–
CCCOc1ccc(Cl)cc1CNc1ccccc1,"inconclusive [inhibitor, single point]",–
Cc1cc(NC(=O)c2ccc(-c3ccc(Br)cc3)o2)cc(-c2nc3ncccc3o2)c1O,–,inactive: 4.67%
COc1ccc(N2CCN(c3nc(NCCc4ccc(OC)c(OC)c4)nc(OC)n3)CC2)cc1,–,inactive: -3.96%
Cc1ccc(NC(=O)C2CCN(S(=O)(=O)c3cccs3)CC2)c(O)c1,"inconclusive [inhibitor, single point]",–
O=S(=O)(c1ccccc1)c1ncc(C(F)(F)F)cc1Cl,–,inactive: 15% [at 7.66 µM]
O=c1c(Cl)c(NCc2ccccc2)cnn1C12CC3CC(CC(C3)C1)C2,"inconclusive [inhibitor, partial curve]",–
Cc1ccc(N(Cc2cc3ccc(C)cc3[nH]c2=O)S(=O)(=O)c2ccccc2)c(C)c1,–,inactive: 7.42%
C=CCNc1nc(NCc2cccc(OC)c2)c2sc(-c3ccccc3)cc2n1,"inconclusive [inhibitor, single point]",–
O=C(Nc1c(C(=O)O)oc2ccc(Br)cc12)c1ccccc1,"inconclusive [inhibitor, single point]",–
CC(C)CCNC(=O)c1ccc(Cn2c(SCC(=O)NC(C)C)nc3ccccc3c2=O)cc1,–,inactive: 6.87%
CC1CCN(CCOc2ccc(Cl)c(Cl)c2)CC1,"inconclusive [inhibitor, partial curve, poor fit]",–
Cc1nn(-c2ccc(C(F)(F)F)cn2)c(C)c1Oc1ccccc1O,active: 7.94 µM,–
CSc1ccc(/C=N/n2c(C3CCCCC3)n[nH]c2=S)cc1,"inconclusive [inhibitor, single point]",–
COC(=O)c1ccc(COc2cccc3c2CCN(Cc2ccccc2)C3=O)o1,"inconclusive [inhibitor, partial curve, poor fit]",–

Compound,Potency,"activity change, negative = inhibition"
Cn1c(C(=O)NCc2ccccn2)cc2c(=O)n3ccccc3nc21,–,inactive: 0%
Cc1ccc(Cl)cc1N1CCN(C(=O)c2cccn2-c2nnc(N3CCCCC3)s2)CC1,–,inactive: 15.4%
COC(=O)C1=C(C)N(c2ccc(C)c(C)c2)/C(=C/c2ccc(O)cc2)C1=O,"inconclusive [inhibitor, single point]",–
Cc1nn(C(=O)c2cccnc2)c(C)c1Sc1ccc(Br)cc1,"inconclusive [inhibitor, partial curve, poor fit]",–
COc1ccc2c(CC(=O)Nc3cccc(S(=O)(=O)N4CCOCC4)c3)coc2c1,"inconclusive [inhibitor, partial curve, poor fit]",–
CC(C)N(C)Cc1cn(C)nc1-c1ccc(Oc2ccccc2)cc1,"inconclusive [inhibitor, partial curve, poor fit]",–
COc1ccc(C(=O)Oc2c(Sc3ccccc3)c(C)nn2-c2ccccc2)cc1OC,"inconclusive [inhibitor, single point]",–
CCOc1ccccc1NC(=O)NC1(C(=O)NCc2cccnc2)CCCCC1,"inconclusive [inhibitor, single point]",–
COc1cccc(NS(=O)(=O)c2ccc3c(c2)CCN3C(C)=O)c1,–,inactive: 0.372%
CCCN1CCC(=O)N([C@H](CSc2ccc(C)cc2)Cc2ccccc2)CC1,"inconclusive [inhibitor, partial curve, poor fit]",–
O=C(Nc1ccc2nc(SCC(=O)N3CCCc4ccccc43)sc2c1)c1cccc(Cl)c1,"inconclusive [inhibitor, partial curve]",–
CCc1ccc(/C=N/NC(=O)c2cc(-c3ccncc3)nc3ccccc23)s1,"inconclusive [inhibitor, full curve]",–
COc1ccc(CN(C(=O)c2cc3ccccc3oc2=O)C2CCCC2)cc1,"inconclusive [inhibitor, partial curve, poor fit]",–
COc1ccc(OC)c(CCNc2nccn(-c3ccc(C)c(C)c3)c2=O)c1,"inconclusive [inhibitor, single point]",–
CCc1ccc(Nc2nnc(SCC(=O)N(C)C3CCS(=O)(=O)C3)s2)cc1 (stereo not given),"inconclusive [inhibitor, single point]",–
CC1CCc2cc(F)cc3c(O)c(C(=O)NCC4CCCO4)c(=O)n1c23 (stereo not given),"inconclusive [inhibitor, full curve, poor fit]",–
CN(C)CC/C=C1\c2cc(Cl)ccc2Sc2cc(F)c(F)cc21,"inconclusive [inhibitor, single point]",–
CCc1ccccc1Nc1cc(C(=O)NCCc2ccccc2)c2ccccc2n1,"inconclusive [inhibitor, single point]",–
COc1cc(OC)cc(C(=O)N[C@H](C(=O)Nc2nc(-c3cc(OC)ccc3OC)cs2)C(C)C)c1,"inconclusive [inhibitor, single point]",–
O=C(CCc1nc2ccccc2c(=O)[nH]1)OCCOc1ccc(Cl)cc1,"inconclusive [inhibitor, partial curve, poor fit]",–
CCCCNc1ccc2c3c(cccc13)C(=O)N(CCCC)C2=O,active: 7.08 µM,–
COc1ccc([C@H]2C[C@@H](O)[C@H](n3cc(COC(=O)c4ccccc4)nn3)CN2CC2CCCCC2)cc1,active: 11.2 µM,–

Compound,Potency,"activity change, negative = inhibition"
O=C(O)CCCCNCc1ccccc1,–,inactive: 11.3%
CCOc1ccc(/C=C/C(=O)OCC(=O)Nc2cccc(S(=O)(=O)N3CCCC3)c2)cc1,"inconclusive [inhibitor, partial curve, poor fit]",–
CC(C)(C)c1ccc(OCCCC(=O)N2CCOCC2)cc1,–,inactive: -28.8%
Nc1nc2nc(-c3ccc(F)cc3)cc(C(F)(F)F)n2n1,–,inactive: 13% [at 7.66 µM]
COC(c1ccc(Cl)cc1)(c1ccc(Cl)cc1)C(Oc1nccc(C)n1)C(=O)O (stereo not given),"inconclusive [inhibitor, single point]",–
Cc1ccc(S(=O)(=O)NCCc2sc3nc(-c4ccccc4)nn3c2C)cc1C,"inconclusive [inhibitor, single point]",–
CC(C)c1ccc(NC(=O)Nc2nc(C(N)COCc3ccccc3)cs2)cc1 (stereo not given),"inconclusive [inhibitor, partial curve, poor fit]",–
CCCc1nc(-c2ccccc2O)n(-c2ccccc2)n1,"inconclusive [inhibitor, partial curve, poor fit]",–
CC(=O)c1ccc(S(=O)c2ccccc2)cc1 (stereo not given),–,inactive: 4.07%
Cc1ccccc1-c1nc(CS(=O)(=O)CC(=O)Nc2cccc(C(F)(F)F)c2)c(C)o1,–,inactive: -24.6%
Fc1ccc(-c2ccc(NCCN3CCOCC3)nn2)cc1,"inconclusive [inhibitor, single point]",–
COc1ccc(NC(=O)CSc2nc(N)c(C#N)cc2C#N)cc1,–,inactive: 2.33%
O=C(c1cccc(Cl)c1)N(Cc1ccco1)Cc1ccccc1Cl,active: 10 µM,–
COc1cccc(-c2cc(C(=O)N3CCN(C(c4ccccc4)c4ccccc4)CC3)no2)c1,"inconclusive [inhibitor, full curve, poor fit]",–
O=C(N/N=C/c1ccccc1O)C(=O)N1CCCCCC1,"inconclusive [inhibitor, single point]",–
COC(=O)/C(=C\Nc1ccccc1N)c1ncc(C(F)(F)F)cc1Cl,"inconclusive [inhibitor, partial curve, poor fit]",–
O=S(=O)(Nc1cccc(-c2ccc(N3CCCCCC3)nn2)c1)c1ccccc1,"inconclusive [inhibitor, single point]",–
CC(C)(C)OC(=O)N1CCN(C(=O)c2[nH]c(C(F)(F)F)nc2-c2ccccc2)CC1,–,inactive: 20.7%
COc1ccc(C(CNC(=O)c2cc(SC)ccc2Cl)N(C)C)cc1 (stereo not given),"inconclusive [inhibitor, partial curve, poor fit]",–
CC(C)c1ccccc1OCCCN1CCCC1,"inconclusive [inhibitor, partial curve, poor fit]",–
O=C(Nc1nnc(-c2ccc3c(c2)CCCC3)o1)c1ccccc1Cl,"inconclusive [inhibitor, partial curve, poor fit]",–

# Source: PubChem BioAssay AID624417 (National Center for Advancing Translational Sciences (NCATS), 2012)
